Consider 15 sequences from the supplement of paper PMC7826260.

The list shows a part of the results. Each Rep nickase domain was tested in vitro on the same pool of single strands at 3 µM enzyme and 37 °C for 1 h; the strands have 90 letters, of which the middle is given. Numbers give uncut DNA relative to the enzyme-free pool, as log2; strong cutting gives strongly negative numbers. There is no active / inactive call. Because reads are shares of a total, they shift together; values above 0 arise when much of the pool is cut.

Experiment in all cases: uncleaved DNA left, log2 of reads against the no-enzyme library (log2 ratio); higher = less cleavage (more negative = more Rep cleavage of the k-mer); sequences stand for … in CTCGTCCG…ACCGGAGA
Assay [1] concerns T1, Rep nickase domain of Muscovy duck circovirus.
T1 sequence (Rep 1-111, printed without the tag): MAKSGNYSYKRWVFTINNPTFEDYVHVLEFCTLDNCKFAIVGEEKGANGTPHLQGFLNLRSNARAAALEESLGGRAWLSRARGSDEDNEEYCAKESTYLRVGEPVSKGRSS
Here is the method: (§1)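 A pool of 90-nt single-stranded DNAs with seven random bases just before the constant AC of the nick site (name = the seven bases) was cut by 3 µM recombinant His6-SUMO-tagged Rep nickase domain (300 nM DNA, 50 mM HEPES pH 8.0, 50 mM NaCl, 1 mM MnCl2, 1 h, 37 °C, three replicates). Uncut DNA was amplified and sequenced.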

Assay [2] concerns T2, Rep nickase domain of banana bunchy top virus.
T2 sequence (Rep 1-94, printed without the tag): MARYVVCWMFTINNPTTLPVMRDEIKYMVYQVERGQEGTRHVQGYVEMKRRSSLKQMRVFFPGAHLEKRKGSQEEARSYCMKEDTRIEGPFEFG
On the procedure:
as §1

The test system of assay [3] is T3, Rep nickase domain of cabbage leaf curl virus.
T3 sequence (Rep 1-116, printed without the tag): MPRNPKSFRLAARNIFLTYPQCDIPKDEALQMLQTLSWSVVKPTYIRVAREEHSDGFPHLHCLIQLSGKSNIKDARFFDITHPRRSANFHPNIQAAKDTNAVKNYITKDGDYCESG
Here is the method:
as §1

Assay [4] concerns T4, Rep nickase domain of chickpea chlorotic dwarf virus.
T4 sequence (Rep 1-124, printed without the tag): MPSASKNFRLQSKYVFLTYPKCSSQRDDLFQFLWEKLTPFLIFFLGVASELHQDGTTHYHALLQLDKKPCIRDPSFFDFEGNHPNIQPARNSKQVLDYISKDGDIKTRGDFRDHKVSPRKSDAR
On the procedure: as §1
For assay [5], the system named is T5, Rep nickase domain of faba bean necrotic yellows virus.
T5 sequence (Rep 1-98, printed without the tag): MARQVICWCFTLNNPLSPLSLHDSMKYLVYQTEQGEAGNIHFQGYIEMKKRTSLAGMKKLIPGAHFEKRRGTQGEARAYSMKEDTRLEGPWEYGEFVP
On the procedure: as §1
In assay [6] the test system is T6, Rep nickase domain of maize striate mosaic virus.
T6 sequence (Rep 1-117, printed without the tag): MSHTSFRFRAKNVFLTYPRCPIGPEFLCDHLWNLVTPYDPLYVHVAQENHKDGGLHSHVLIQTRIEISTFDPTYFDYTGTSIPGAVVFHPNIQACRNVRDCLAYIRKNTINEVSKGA
Here is the method:
as §1

Assay [7] has as its system T7, Rep nickase domain of porcine circovirus 2.
T7 sequence (Rep 2-116, printed without the tag): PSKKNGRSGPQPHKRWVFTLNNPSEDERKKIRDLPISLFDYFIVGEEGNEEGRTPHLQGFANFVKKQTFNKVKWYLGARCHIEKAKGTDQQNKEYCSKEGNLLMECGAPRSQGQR
Here is the method:
as §1

Assay [8] has as its system T8, Rep nickase domain of tomato golden mosaic virus.
T8 sequence (Rep 1-124, printed without the tag): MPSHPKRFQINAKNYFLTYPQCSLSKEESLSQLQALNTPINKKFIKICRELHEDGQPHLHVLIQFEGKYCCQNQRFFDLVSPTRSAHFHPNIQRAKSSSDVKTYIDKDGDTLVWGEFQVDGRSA
On the procedure: as §1
For assay [9], the system named is T9, Rep nickase domain of tomato yellow leaf curl virus.
T9 sequence (Rep 1-136, printed without the tag): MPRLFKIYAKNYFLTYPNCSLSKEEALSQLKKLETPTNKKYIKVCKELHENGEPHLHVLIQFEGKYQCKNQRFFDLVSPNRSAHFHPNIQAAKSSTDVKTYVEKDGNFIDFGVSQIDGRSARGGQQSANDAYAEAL
On the procedure:
as §1

Assay [10] concerns T10, Rep nickase domain of wheat dwarf virus.
T10 sequence (Rep 1-137, printed without the tag): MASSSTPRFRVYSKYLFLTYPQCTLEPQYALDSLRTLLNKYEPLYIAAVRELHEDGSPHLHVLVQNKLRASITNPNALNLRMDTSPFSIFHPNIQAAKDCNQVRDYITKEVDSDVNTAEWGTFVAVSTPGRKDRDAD
Here is the method: as §1

TGAAACC: the “uncleaved DNA left (log2)” value amounted to 0.0329 in assay [1]; 0.194 in assay [2]; 0.413 in assay [3]; 0.325 in assay [4]; 0.0786 in assay [5]; 0.945 in assay [6]. Also, the “uncleaved DNA left (log2)” value is -0.391 in assay [7], 0.0993 in [8], 0.167 in assay [9] and 0.178 in assay [10].
As to ACTATTA, the “uncleaved DNA left (log2)” value in assay [1] is 0.0812; in assay [2] it was 0.236; in [3], -0.146; in assay [4], -1.37; in [5], 0.122; in assay [6], -0.456. In addition, the “uncleaved DNA left (log2)” value came to 0.111 in [7], 0.181 in [8], 0.104 in assay [9] and 0.199 in assay [10].
For GCGCTAC, the “uncleaved DNA left (log2)” value was 0.0361 in assay [1]; 0.0197 in [2]; 0.153 in [3]; -0.243 in assay [4]; 0.0909 in assay [5]; 0.25 in [6]. The “uncleaved DNA left (log2)” value in [7] was 0.193; in assay [8], -0.0542; in assay [9] it was 0.0768; in assay [10], 0.11.
For ATTGCTC, the “uncleaved DNA left (log2)” value was 0.0719 in [1]; -0.0337 in [2]; -0.5 in [3]; -1.17 in [4]; -0.0256 in assay [5]; -1.13 in [6]. For the same sequence, the “uncleaved DNA left (log2)” value in assay [7] is 0.0985; in assay [8] it was -0.127; in assay [9], 0.0794; in [10] it was -0.0298.
AACATTA: the “uncleaved DNA left (log2)” value in assay [1] was -0.175; in [2], -0.0174; in assay [3], -0.299; in assay [4] it was -1.83; in assay [5], 0.0255; in assay [6], -0.737. In addition, the “uncleaved DNA left (log2)” value was -0.169 in [7], -0.107 in assay [8], -0.000119 in assay [9] and 0.00163 in assay [10].
Regarding CGAGGGC, the “uncleaved DNA left (log2)” value in assay [1] is 0.00819; in assay [2], 0.058; in assay [3], 0.0605; in [4], 0.374; in [5], -0.139; in [6], 0.174. The “uncleaved DNA left (log2)” value in assay [7] is 0.0146; in [8], 0.0643; in assay [9], 0.0503; in assay [10] it was -0.0532.
In the case of AGACCCT, the “uncleaved DNA left (log2)” value is 0.104 in assay [1]; 0.126 in assay [2]; 0.957 in assay [3]; 1.73 in assay [4]; 0.0708 in [5]; 2.37 in [6]. Also, the “uncleaved DNA left (log2)” value is 0.137 in [7], 0.0613 in [8], 0.108 in assay [9] and 0.245 in assay [10].
Turning to TGTCGTA, the “uncleaved DNA left (log2)” value was -0.0453 in [1]; -0.0735 in [2]; -0.0444 in assay [3]; -0.783 in [4]; 0.00498 in assay [5]; -0.599 in [6]. Besides, the “uncleaved DNA left (log2)” value in assay [7] was -0.092; in [8], -0.0384; in [9], 0.024; in assay [10], -0.0744.
With GGTCGTA, the “uncleaved DNA left (log2)” value in [1] was determined as 0.135; in assay [2], 0.179; in assay [3] it was 0.529; in [4] it was 1.17; in assay [5], 0.164; in assay [6], 1.74. The “uncleaved DNA left (log2)” value in [7] was 0.165; in assay [8], 0.122; in assay [9], 0.261; in assay [10] it was 0.283.
As for CAGTTTG, the “uncleaved DNA left (log2)” value in assay [1] was 0.0122; in assay [2], -0.096; in assay [3] it was -0.596; in assay [4], -0.755; in assay [5], -0.0218; in [6], -1.01. The “uncleaved DNA left (log2)” value in assay [7] is -1.28; in [8], 0.00676; in assay [9], -0.0799; in assay [10], -0.0656.
Regarding TCACAAT, the “uncleaved DNA left (log2)” value in assay [1] is 0.158; in assay [2] it was 0.0262; in assay [3], -0.0647; in [4], -1.53; in [5], 0.165; in [6], -0.414. Moreover, the “uncleaved DNA left (log2)” value in assay [7] was -0.0971; in assay [8], 0.0943; in assay [9], 0.0825; in assay [10], -0.0759.
As to GGCGTGT, the “uncleaved DNA left (log2)” value is -0.162 in assay [1]; -0.0136 in [2]; 0.346 in assay [3]; 0.74 in assay [4]; -0.0263 in assay [5]; 1.32 in assay [6]. The “uncleaved DNA left (log2)” value turned out to be 0.02 in assay [7], 0.0549 in assay [8], 0.0571 in assay [9] and 0.027 in assay [10].
Regarding TAGTCGT, the “uncleaved DNA left (log2)” value in assay [1] is -0.233; in [2], -0.571; in [3], -0.781; in [4], -1.49; in [5], -0.313; in assay [6], -1.14. The “uncleaved DNA left (log2)” value in [7] was -3.55; in [8], -0.142; in assay [9] it was -0.0772; in assay [10] it was -0.264.
On to GCCGAAA, for which the “uncleaved DNA left (log2)” value was -0.0111 in assay [1]; -0.0721 in assay [2]; 0.23 in [3]; 0.572 in assay [4]; -0.0522 in assay [5]; 0.345 in assay [6]. The “uncleaved DNA left (log2)” value in assay [7] is 0.231; in assay [8], -0.00524; in [9], 0.1; in assay [10], 0.256.
Consider CGGCGAA, for which the “uncleaved DNA left (log2)” value in assay [1] was -0.115; in assay [2], -0.0411; in assay [3], -0.45; in assay [4] it was -0.202; in assay [5] it was 0.0636; in assay [6], -0.456. For the same sequence, the “uncleaved DNA left (log2)” value in assay [7] was 0.0402; in [8], -0.0277; in assay [9], -0.0475; in [10], -0.113.
